Inconclusive means that the source gave no clear call. Such entries were picked first, then a sample of the others. Where the call is inconclusive, the potency comes from a doubtful curve fit. The source made the active and inactive calls. Calls come from the whole dose curve; as a rule, active = well fitted curve in the direction sought with a large enough effect; inconclusive = small, poorly fitted or top-dose-only effect, or another doubt; inactive = no such curve, though single readings can be large; an effect the other way counts as inactive or inconclusive.
Columns and labels:
[1] = qHTS of pediatric cancer cell lines to identify multiple opportunities for drug repurposing: Primary screen for SJ-GBM2 cells (AID 1347091)
How it was run: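 Eight- or eleven-point concentration series, 48 h treatment at 37 degrees C in growth media; readout CellTiter-Glo luminescence. Potency and efficacy were taken from the concentration-response curves.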

[2] = qHTS of pediatric cancer cell lines to identify multiple opportunities for drug repurposing: Primary screen for BT-37 cells (AID 1347094);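 for activity change, negative = cytotoxic: plate controls were DMSO for no effect and bortezomib for full effect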
How it was run: (§1)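 500-1,000 cells/well; 5 h pre-incubation 37 °C/5% CO2; compound pinned; 48 h; CellTiter-Glo, 15 min RT; luminescence. MIPE 11-pt from 0.78 nM, NPC 8-pt from 0.59 nM final. Bortezomib 2.3 µM final as positive control.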

[3] = qHTS of pediatric cancer cell lines to identify multiple opportunities for drug repurposing: Primary screen for U-2 OS cells (AID 1347096); note: nearly all actives have a fitted effect of over 50% in size;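 for activity change, negative = cytotoxic: plate controls were DMSO wells for no effect and bortezomib positive control wells for full effect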
How it was run: (§2)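 Cells (500-1,000/well) in growth media were settled 5 h at 37 degrees C, then given compounds for 48 h. Viability was read as CellTiter-Glo luminescence. Primary runs used MIPE at 11 points (0.78 nM-46 µM) and NPC at 8 points (0.59 nM-46 µM); follow-ups used 11 points.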

[4] = qHTS of pediatric cancer cell lines to identify multiple opportunities for drug repurposing: Primary screen for SK-N-SH cells (AID 1347098); note: nearly all actives have a fitted effect of over 65% in size;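 for activity change, negative = cytotoxic: DMSO served as neutral control and bortezomib at 2.3 µM as positive control; % is set by controls: 0 for no effect and ±100 for the full control effect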
How it was run: (§3)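 Cells (500-1,000/well) rested 5 h, then received compounds for 48 h; metabolically active cells were measured by CellTiter-Glo luminescence. Final concentrations spanned up to 46 µM (MIPE, 11-point) or 0.59 nM-46 µM (NPC, 8-point) in primary screens, 11-point in follow-ups.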

[5] = qHTS of pediatric cancer cell lines to identify multiple opportunities for drug repurposing: Primary screen for Rh18 cells (AID 1347102); note: nearly all actives have a fitted effect of over 65% in size
How it was run: as §2

[6] = qHTS of pediatric cancer cell lines to identify multiple opportunities for drug repurposing: Primary screen for control Hh wild type fibroblast cells (AID 1347106); note: nearly all actives have a fitted effect of over 55% in size
How it was run: as §2

[7] = qHTS of pediatric cancer cell lines to identify multiple opportunities for drug repurposing: Primary screen for Rh30 cells (AID 1347107); note: nearly all actives have a fitted effect of over 75% in size
How it was run: as §2

[8] = qHTS of pediatric cancer cell lines to identify multiple opportunities for drug repurposing: Primary screen for NB-EBc1 cells (AID 1347095);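 for activity change, negative = cytotoxic: plate controls were DMSO neutral control for no effect and bortezomib for full effect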
How it was run: as §1

[9] = qHTS of pediatric cancer cell lines to identify multiple opportunities for drug repurposing: Primary screen for LAN-5 cells (AID 1347100); conditions: LAN-5 neuroblastoma viability, CellTiter-Glo luminescence, 48 h; activity change, negative = cytotoxic: at 46 µM (top of the series)
How it was run: as §2

[10] = qHTS of pediatric cancer cell lines to identify multiple opportunities for drug repurposing: Primary screen for Rh41 cells (AID 1347108); note: nearly all actives have a fitted effect of over 70% in size
How it was run: as §1

[11] = qHTS of pediatric cancer cell lines to identify multiple opportunities for drug repurposing: Confirmatory screen for NB1643 cells (AID 1347109); conditions: NB1643 neuroblastoma cell viability; activity change, negative = cytotoxic: at 45.9 µM (top of the series); note: nearly all actives have a fitted effect of over 45% in size
How it was run: as §2

[12] = qHTS of pediatric cancer cell lines to identify multiple opportunities for drug repurposing: Primary screen for Saos-2 cells (AID 1347097); note: nearly all actives have a fitted effect of over 40% in size; for activity change, negative = cytotoxic: % is set by controls: 0 for no effect and ±100 for the full control effect
How it was run: as §1

[13] = qHTS of pediatric cancer cell lines to identify multiple opportunities for drug repurposing: Primary screen for NB1643 cells (AID 1347099); note: nearly all actives have a fitted effect of over 50% in size
How it was run: as §1

[14] = qHTS of pediatric cancer cell lines to identify multiple opportunities for drug repurposing: Primary screen for BT-12 cells (AID 1347101); note: nearly all actives have a fitted effect of over 25% in size
How it was run: as §3

[15] = qHTS of pediatric cancer cell lines to identify multiple opportunities for drug repurposing: Primary screen for RD cells (AID 1347104); note: nearly all actives have a fitted effect of over 55% in size
How it was run: as §1

[16] = qHTS of pediatric cancer cell lines to identify multiple opportunities for drug repurposing: Primary screen for MG 63 (6-TG R) cells (AID 1347105); conditions: MG 63 (6-TG R) viability, CellTiter-Glo, 48 h; activity change, negative = cytotoxic: at 46 µM (top of the series); note: nearly all actives have a fitted effect of over 50% in size
How it was run: as §1

[17] = qHTS of pediatric cancer cell lines to identify multiple opportunities for drug repurposing: Primary screen for A673 cells (AID 1347092); conditions: A673 Ewing sarcoma viability, CellTiter-Glo ATP luminescence, 48 h; activity change, negative = cytotoxic: at 46 µM (top of the series); note: nearly all actives have a fitted effect of over 45% in size; for activity change, negative = cytotoxic: % is set by controls: 0 for no effect and ±100 for the full control effect
How it was run: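 Cell viability of A673 measured by CellTiter-Glo ATP luminescence after 48 hours compound exposure. Dilution series spanned 0.78 nM to 46 µM (MIPE, 11-point) or 0.59 nM to 46 µM (NPC, 8-point); bortezomib 2.3 uM positive control.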

[18] = qHTS of pediatric cancer cell lines to identify multiple opportunities for drug repurposing: Primary screen for OHS-50 cells (AID 1347103); note: nearly all actives have a fitted effect of over 40% in size;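 for activity change, negative = cytotoxic: plate controls were DMSO neutral control for no effect and bortezomib positive control for full effect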
How it was run: as §3

[19] = qHTS of pediatric cancer cell lines to identify multiple opportunities for drug repurposing: Primary screen for SK-N-MC cells (AID 1347093); conditions: SK-N-MC viability, CellTiter-Glo luminescence, 48 h; activity change, negative = cytotoxic: at 46 µM (top of the series);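 for activity change, negative = cytotoxic: plate controls were DMSO neutral control for no effect and bortezomib for full effect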
How it was run: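 Metabolically active cells were quantified by ATP-dependent luminescence (CellTiter-Glo, 15 min at room temperature) following 48 h treatment. Cells had been plated at 500-1,000 per well and settled for 5 h beforehand.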
Potency is the fitted concentration of half-maximal effect; tags give direction and shape of the fitted curve.

CC(C)C[C@H](NC(=O)[C@@H](NC(=O)c1cccc(-c2ccccc2)n1)[C@@H](C)O)B(O)O
active: Potency [1] 0.0418 µM | Potency [2] 0.0968 µM | Potency [3] 0.148 µM | Potency [4] 0.0607 µM | Potency [5] 0.0469 µM | Potency [6] 0.209 µM | Potency [7] 0.372 µM

CCC(C(=O)O)C1CCC(C)C(C(C)C(O)C(C)C(=O)C(CC)C2OC3(C=CC(O)[C@@]4(CC[C@](C)(C5CC[C@@](O)(CC)C(C)O5)O4)O3)C(C)CC2C)O1 (some centres not stated)
active: Potency [1] 11.8 µM | Potency [8] 0.296 µM | Potency [4] 12.1 µM | Potency [9] 1.05 µM | Potency [10] 3.72 µM | Potency [11] 1.17 µM
inconclusive: Potency [3] 3.72 µM [cytotoxic, full curve] | Potency [6] 1.32 µM [cytotoxic, full curve]

CN(C)CCc1c[nH]c2ccc(C[C@H]3COC(=O)N3)cc12
inactive: Potency [12]
inconclusive: Potency [1] 0.15 µM [cytotoxic, full curve, poor fit]

C=CC[C@@H]1C=C(C)C[C@H](C)C[C@H](OC)[C@H]2O[C@@](O)(C(=O)C(=O)N3CCCC[C@H]3C(=O)O[C@H](C(C)=C[C@@H]3CC[C@H](O)[C@H](OC)C3)[C@@H](C)[C@@H](O)CC1=O)[C@@H](C)C[C@@H]2OC
inconclusive: Potency [1] 11.8 µM [cytotoxic, single point] | Potency [13] 10.5 µM [cytotoxic, single point] | Potency [9] 4.69 µM [cytotoxic, partial curve] | Potency [14] 1.93 µM [cytotoxic, full curve] | Potency [5] 3.32 µM [cytotoxic, full curve, poor fit] | Potency [15] 5.9 µM [cytotoxic, partial curve] | Potency [16] 0.935 µM [cytotoxic, full curve, poor fit] | Potency [10] 5.9 µM [cytotoxic, partial curve]

Cc1nnc(C(=O)NC(C)(C)c2nc(C(=O)NCc3ccc(F)cc3)c(O)c(=O)n2C)o1
inactive: Potency [17] | Potency [2]

O=c1[nH]cnc2[nH]ncc12
inconclusive: Potency [1] 20.9 µM [cytotoxic, partial curve] | Potency [18] 21.9 µM [cytotoxic, partial curve, poor fit]
inactive: Potency [8]

N#CC(c1ccc(Cl)cc1)c1c(Cl)cc(-n2ncc(=O)[nH]c2=O)cc1Cl (configuration not stated)
inconclusive: Potency [2] 19.3 µM [cytotoxic, partial curve] | Potency [3] 23.5 µM [cytotoxic, single point] | Potency [4] 21.5 µM [cytotoxic, partial curve, poor fit] | Potency [5] 20.9 µM [cytotoxic, single point] | Potency [15] 16.6 µM [cytotoxic, partial curve] | Potency [7] 18.7 µM [cytotoxic, partial curve] | Potency [10] 18.7 µM [cytotoxic, partial curve]
active: Potency [17] 11.8 µM | Potency [8] 8.33 µM | Potency [12] 9.35 µM | Potency [14] 21.7 µM | Potency [16] 14.8 µM

CON=C(C(=O)N[C@@H]1C(=O)N2C(C(=O)O)=C(CSC(=O)c3ccco3)CS[C@H]12)c1csc(N)n1
inactive: Potency [3]
inconclusive: Potency [17] 2.35 µM [cytotoxic, full curve] | Potency [19] 37.2 µM [cytotoxic, single point] | Potency [2] 24.3 µM [cytotoxic, partial curve, poor fit] | Potency [13] 29.6 µM [cytotoxic, partial curve, poor fit]

Cc1n[nH]c(C)c1Cc1sc2c(c1C(=O)N1C[C@H](O)CO1)c(=O)n(C)c(=O)n2CC(C)C
inactive: Potency [18]
active: Potency [13] 1.05 µM
inconclusive: Potency [17] 0.0935 µM [cytotoxic, full curve] | Potency [19] 3.32 µM [cytotoxic, partial curve, poor fit] | Potency [12] 20.9 µM [cytotoxic, partial curve] | Potency [10] 1.32 µM [cytotoxic, partial curve]

FC(F)(F)c1ccc(C=Cc2nc(COc3ccc(CCCCn4ccnn4)cc3)co2)cc1
active: Potency [2] 0.0109 µM | Potency [18] 0.0077 µM
inconclusive: activity change, negative = cytotoxic [17] -87.4% | Potency [8] 0.0026 µM [cytotoxic, full curve] | Potency [4] 0.108 µM [cytotoxic, full curve] | Potency [13] 0.0166 µM [cytotoxic, full curve] | Potency [5] 0.209 µM [cytotoxic, partial curve, poor fit] | Potency [16] 0.0743 µM [cytotoxic, full curve] | Potency [7] 6.62 µM [cytotoxic, partial curve, poor fit] | Potency [11] 0.737 µM [cytotoxic, full curve]

CCc1cncnc1N1CCN(Cc2nc3ccc(C(F)(F)F)cc3[nH]2)CC1
active: Potency [17] 29.6 µM | Potency [14] 12.2 µM
inconclusive: Potency [2] 17.2 µM [cytotoxic, partial curve] | Potency [8] 16.6 µM [cytotoxic, partial curve] | Potency [12] 16.6 µM [cytotoxic, partial curve] | Potency [4] 17.1 µM [cytotoxic, partial curve] | Potency [13] 16.6 µM [cytotoxic, partial curve] | Potency [9] 10.5 µM [cytotoxic, partial curve] | Potency [5] 14.8 µM [cytotoxic, partial curve, poor fit] | Potency [15] 16.6 µM [cytotoxic, partial curve] | Potency [16] 3.72 µM [cytotoxic, partial curve] | Potency [10] 13.2 µM [cytotoxic, partial curve]

CC(Cc1ccc(O)c(O)c1)(NN)C(=O)O (configuration not stated)
inactive: Potency [4]
inconclusive: Potency [17] 23.5 µM [cytotoxic, partial curve] | Potency [19] 37.2 µM [cytotoxic, single point] | Potency [2] 24.3 µM [cytotoxic, partial curve, poor fit] | Potency [8] 14.8 µM [cytotoxic, partial curve, poor fit] | Potency [13] 29.6 µM [cytotoxic, single point] | Potency [9] 11.8 µM [cytotoxic, partial curve] | Potency [15] 18.7 µM [cytotoxic, partial curve, poor fit] | Potency [7] 16.6 µM [cytotoxic, partial curve] | Potency [10] 14.8 µM [cytotoxic, partial curve, poor fit]

CCC(=O)NCC[C@@H]1CCc2ccc3c(c21)CCO3
inactive: Potency [19]
inconclusive: Potency [17] 29.6 µM [cytotoxic, single point] | Potency [12] 29.6 µM [cytotoxic, partial curve, poor fit] | Potency [14] 34.3 µM [cytotoxic, partial curve, poor fit] | Potency [18] 9.68 µM [cytotoxic, partial curve, poor fit] | Potency [15] 29.6 µM [cytotoxic, partial curve] | Potency [10] 18.7 µM [cytotoxic, partial curve, poor fit]

From PubChem BioAssay (NCATS)
